Among the data in PubChem BioAssay (NCATS) are max response and AC50 values, retold here.

Values joined by “and” are separate entries in the source; they are usually repeats but may differ in a detail not shown here. Identical values can stand only once. This is one part of the list. Shown are side measurements of this screen, not its main read-out; they come without a call. Compounds called inactive in the main read-out are mostly missing here. The note in brackets gives the kind of curve behind each potency; many fits are weak.
Tags describe the fitted curve by direction and shape.

A short description of one assay: qHTS Assay for Lipid Storage Modulators (AID 1519). Particulars: Drosophila S3 cells, BODIPY lipid droplet/cell ratio, laser cytometry; measured here: cell count channel max response; cells loaded with oleic acid. The procedure, abridged: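 Cells seeded at 5,000 per well were treated with compounds over a concentration series and loaded with oleic acid (400 uM, as added). Lipid droplet fluorescence (488 nm excitation, 500-530 nm channel) was read by laser-scanning cytometry and normalized to 20 uM Triacsin C.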
On to `NCCCP(=O)(O)CC1CCCCC1`, for which the max response is 41.3%.
On the same count and under the same terms, the value for `CN(C)Cc1c[nH]c2ccccc12` was 65.6%; that for `O=C(CCCN1CCC2(CC1)C(=O)N(Cc1cccc(F)c1)CN2c1ccccc1)c1ccc(F)cc1` was 29.5%; that for `O=CN1CCCCC1C1CC[C@H]2CCCCN2C1` (stereo partly drawn) was 49.1%.
Turning to `CN1C[C@H](C(=O)N[C@]2(C)O[C@@]3(O)[C@H]4CCCN4C(=O)[C@H](Cc4ccccc4)N3C2=O)C[C@H]2c3cccc4[nH]cc(c34)C[C@@H]21`, the max response came out at 48.7%.
The same measure, in the same setting: the value for `C=CCN1CCC23c4c5ccc(O)c4O[C@H]2C(=O)CC[C@@]3(O)C1C5` (stereo partly drawn) was 46.1%; that for `Cc1nnc2ccc(-c3cccc(C(F)(F)F)c3)nn12` was 117%.
For `CN(C(=O)Cc1ccc(Cl)c(Cl)c1)[C@H](CN1CCCC1)c1cccc(N=C=S)c1`, the max response was 91.2%.
For `CCCN1CCO[C@@H]2c3cc(O)ccc3OC[C@@H]21`, the max response is -34.2%.
On the same count and under the same terms, to `O=C(NC[C@H]1CCCCN1)c1cc(OCC(F)(F)F)ccc1OCC(F)(F)F` belongs 54.8%.
Regarding `C[C@H](Cc1ccc2c(c1)OC(C(=O)O)(C(=O)O)O2)NC[C@H](O)c1cccc(Cl)c1`, the max response turned out to be 65.4%.
With `NC[C@H](CP(=O)(O)O)c1ccc(Cl)cc1`, the max response was determined as 33.5%.
The same measure, in the same setting: the value for `CC1=CC(=O)c2c(O)cccc2C1=O` was -107% and 5.04%; that for `CC1(C)N(O)C(c2ccc(C(=O)O)cc2)=[N+]([O-])C1(C)C` was 31.7%; that for `Cc1c(C(=O)c2ccc3ccccc3c2)c2cccc3c2n1[C@H](CN1CCOCC1)CO3` was 102%.
On the same count and under the same terms, the value for `CC1=NCCc2c1[nH]c1cc(O)ccc21` was 84.8%.
With `Clc1ccc(N2CC3CCC(C2)N3)nn1`, the max response came out at 66.8%.
On the same count and under the same terms, the value for `CC(=O)C1=C(O)[C@@H]2[C@@H]3c4c[nH]c5cccc(c45)C[C@@H]3C(C)(C)N2C1=O` was 74.3%; that for `c1cc2c(cc1[C@H]1OC[C@@H]3[C@H]1CO[C@H]3c1ccc3c(c1)OCO3)OCO2` was 126%; that for `COc1ccc2[nH]cc(CCN(C)C)c2c1` was -3.03%.
Consider `CCCCCCC(C)(C)c1ccc([C@@H]2C[C@H](O)CC[C@@H]2CCCO)c(O)c1`, for which the max response came to 44.6%.
On the same count and under the same terms, to `COc1ccc2c(c1OC)C(=O)O[C@@H]2C1c2cc3c(cc2CCN1C)OCO3` (stereo partly drawn) belongs 100%; to `CCC1/C=C/C=CCC(C)C(O)[C@@](C)(O)C(=O)C(C)C(O)C(C)C(=O)C(C)C(O)C(C)C=CC(=O)O[C@H]2C(C)C(CC1)O[C@]1(CCC(C)C(CC(C)O)O1)C2C` (stereo partly drawn), -36.4%; to `Cc1ccc(C(=O)c2ccc(CC(=O)O)n2C)cc1`, 30.4%.
For `C=CCc1cc(OC)c2c(c1OC)OCO2`, the max response is 35.2%.
Still for that read-out and setting: the value for `CN1CCN(C(=O)O[C@@H]2c3nccnc3C(=O)N2c2ccc(Cl)cn2)CC1` was 30.7%; that for `c1ccc2nc(C3=NCCN3)cnc2c1` was 103%.
Consider `COc1ccc(CCN)cc1O`, for which the max response was -16.1%.
On to `CC(CCC(=O)O)C1CCC2C3C(=O)C[C@@H]4CC(=O)CC[C@@]4(C)C3CC(=O)[C@]12C` (stereo partly drawn), for which the max response is 37.2%.
On the same count and under the same terms, the value for `COc1cc([C@@H]2c3cc4c(cc3[C@H](O)[C@H]3COC(=O)[C@H]23)OCO4)cc(OC)c1OC` was 99.6%; that for `COc1cc2c(cc1O)CC1c3c(cc(O)c(OC)c3-2)CCN1C` (stereo not drawn) was 91.3%; that for `CCC1C(=O)OCC1Cc1cncn1C` (stereo not drawn) was 64.6% and 27.6%.
On the same count and under the same terms, the value for `COc1cc2ccc(=O)oc2c2ccoc12` was 39%; that for `CCCCCC1C(=O)O[C@H](C)[C@@H](NC(=O)c2cccc(NC=O)c2O)C(=O)OC(C)C1OC(=O)CC(C)C` (stereo partly drawn) was -38%.
As for `Clc1ccc(COC(Cn2ccnc2)c2ccc(Cl)cc2Cl)c(Cl)c1` (stereo not drawn), the max response was -35.8%.
Same read-out and setting: to `C[C@@H]1O[C@H](C[N+](C)(C)C)CS1` belongs 49.1%; to `CC(=O)Oc1c2c(c(CC=C(C)C)c3c1C(=O)C1=CC4CC5C(C)(C)OC(C/C=C(\C)C(=O)O)(C4=O)[C@]15O3)OC(C)(CCC=C(C)C)C=C2` (stereo partly drawn), -93.6%; to `C=C1CCC(O)C/C1=C\C=C1/CCCC2(C)C1CCC2C(C)CCCC(C)C` (stereo not drawn), 82.4%.
On to `C[C@H]1O[C@@H](O[C@H]2[C@@H](O)C[C@H](O[C@H]3[C@@H](O)C[C@H](O[C@H]4CC[C@]5(C)C6CC[C@]7(C)[C@@H](C8=CC(=O)OC8)CC[C@]7(O)C6CC[C@@H]5C4)O[C@@H]3C)O[C@@H]2C)C[C@H](O)[C@@H]1O` (stereo partly drawn), for which the max response amounted to 33.7%.

The assay is the same for the next values; noted with them: Drosophila S3 cells, BODIPY lipid droplet/cell ratio, laser cytometry; measured here: cell number channel AC50; cells loaded with oleic acid.
One may read the AC50 as the concentration giving half of the maximal activity seen. With `NCCCP(=O)(O)CC1CCCCC1`, the AC50 is 35.5 µM [rising, single point].
The same measure, in the same setting: to `CN(C)Cc1c[nH]c2ccccc12` belongs 2.24 µM [rising, full curve, poor fit].
Same read-out and setting: the value for `O=C(CCCN1CCC2(CC1)C(=O)N(Cc1cccc(F)c1)CN2c1ccccc1)c1ccc(F)cc1` was 4.47 µM [rising, full curve, poor fit]; that for `O=CN1CCCCC1C1CC[C@H]2CCCCN2C1` (stereo partly drawn) was 35.5 µM [rising, single point].
On the same count and under the same terms, to `CN1C[C@H](C(=O)N[C@]2(C)O[C@@]3(O)[C@H]4CCCN4C(=O)[C@H](Cc4ccccc4)N3C2=O)C[C@H]2c3cccc4[nH]cc(c34)C[C@@H]21` belongs 3.16 µM [rising, full curve, poor fit].
In the case of `C=CCN1CCC23c4c5ccc(O)c4O[C@H]2C(=O)CC[C@@]3(O)C1C5` (stereo partly drawn), the half-maximal activity concentration (AC50) is 15.8 µM [falling, single point].
In the case of `Cc1nnc2ccc(-c3cccc(C(F)(F)F)c3)nn12`, the concentration at half-maximal activity (AC50) was 1.41 µM [rising, full curve].
The same measure, in the same setting: the value for `CN(C(=O)Cc1ccc(Cl)c(Cl)c1)[C@H](CN1CCCC1)c1cccc(N=C=S)c1` was 14.1 µM [rising, partial curve].
Take `CCCN1CCO[C@@H]2c3cc(O)ccc3OC[C@@H]21`: the AC50 was 0.631 µM [falling, full curve, poor fit].
On the same count and under the same terms, to `O=C(NC[C@H]1CCCCN1)c1cc(OCC(F)(F)F)ccc1OCC(F)(F)F` belongs 31.6 µM [rising, partial curve, poor fit].
Take `C[C@H](Cc1ccc2c(c1)OC(C(=O)O)(C(=O)O)O2)NC[C@H](O)c1cccc(Cl)c1`: the AC50 is 39.8 µM [rising, single point].
The same measure, in the same setting: the value for `NC[C@H](CP(=O)(O)O)c1ccc(Cl)cc1` was 14.1 µM [rising, full curve, poor fit]; that for `CC1=CC(=O)c2c(O)cccc2C1=O` was 28.2 µM [falling, partial curve] and 14.1 µM [rising, partial curve, poor fit]; that for `CC1(C)N(O)C(c2ccc(C(=O)O)cc2)=[N+]([O-])C1(C)C` was 39.8 µM [rising, single point].
In the case of `Cc1c(C(=O)c2ccc3ccccc3c2)c2cccc3c2n1[C@H](CN1CCOCC1)CO3`, the AC50 is 11.2 µM [rising, partial curve].
As for `CC1=NCCc2c1[nH]c1cc(O)ccc21`, the AC50 was 10 µM [rising, partial curve, poor fit].
On the same count and under the same terms, to `Clc1ccc(N2CC3CCC(C2)N3)nn1` belongs 39.8 µM [rising, single point]; to `CC(=O)C1=C(O)[C@@H]2[C@@H]3c4c[nH]c5cccc(c45)C[C@@H]3C(C)(C)N2C1=O`, 31.6 µM [rising, partial curve, poor fit].
Still for that read-out and setting: to `c1cc2c(cc1[C@H]1OC[C@@H]3[C@H]1CO[C@H]3c1ccc3c(c1)OCO3)OCO2` belongs 12.6 µM [rising, partial curve]; to `COc1ccc2[nH]cc(CCN(C)C)c2c1`, 7.94 µM [falling, full curve, poor fit].
Same read-out and setting: the value for `CCCCCCC(C)(C)c1ccc([C@@H]2C[C@H](O)CC[C@@H]2CCCO)c(O)c1` was 2.82 µM [rising, full curve]; that for `COc1ccc2c(c1OC)C(=O)O[C@@H]2C1c2cc3c(cc2CCN1C)OCO3` (stereo partly drawn) was 1.58 µM [rising, full curve].
For the compound `CCC1/C=C/C=CCC(C)C(O)[C@@](C)(O)C(=O)C(C)C(O)C(C)C(=O)C(C)C(O)C(C)C=CC(=O)O[C@H]2C(C)C(CC1)O[C@]1(CCC(C)C(CC(C)O)O1)C2C` (stereo partly drawn), the AC50 is 0.0112 µM [falling, full curve, poor fit].
Regarding `Cc1ccc(C(=O)c2ccc(CC(=O)O)n2C)cc1`, the AC50 is 11.2 µM [rising, partial curve].
The same measure, in the same setting: the value for `C=CCc1cc(OC)c2c(c1OC)OCO2` was 11.2 µM [rising, partial curve].
The same measure, in the same setting: to `CN1CCN(C(=O)O[C@@H]2c3nccnc3C(=O)N2c2ccc(Cl)cn2)CC1` belongs 14.1 µM [rising, single point]; to `c1ccc2nc(C3=NCCN3)cnc2c1`, 25.1 µM [rising, partial curve].
On the same count and under the same terms, the value for `COc1ccc(CCN)cc1O` was 7.94 µM [falling, full curve, poor fit]; that for `CC(CCC(=O)O)C1CCC2C3C(=O)C[C@@H]4CC(=O)CC[C@@]4(C)C3CC(=O)[C@]12C` (stereo partly drawn) was 6.31 µM [rising, full curve].
For `COc1cc([C@@H]2c3cc4c(cc3[C@H](O)[C@H]3COC(=O)[C@H]23)OCO4)cc(OC)c1OC`, the AC50 is 1.12 µM [rising, full curve].
In the case of `COc1cc2c(cc1O)CC1c3c(cc(O)c(OC)c3-2)CCN1C` (stereo not drawn), the AC50 is 15.8 µM [rising, partial curve].
On the same count and under the same terms, to `CCC1C(=O)OCC1Cc1cncn1C` (stereo not drawn) belongs 15.8 µM [rising, partial curve, poor fit]; to `COc1cc2ccc(=O)oc2c2ccoc12`, 0.316 µM [rising, full curve, poor fit]; to `CCCCCC1C(=O)O[C@H](C)[C@@H](NC(=O)c2cccc(NC=O)c2O)C(=O)OC(C)C1OC(=O)CC(C)C` (stereo partly drawn), 0.398 µM [falling, full curve].
As to `Clc1ccc(COC(Cn2ccnc2)c2ccc(Cl)cc2Cl)c(Cl)c1` (stereo not drawn), the AC50 was 20 µM [falling, single point].
`C[C@@H]1O[C@H](C[N+](C)(C)C)CS1`: the AC50 is 39.8 µM [rising, single point].
Same read-out and setting: to `CC(=O)Oc1c2c(c(CC=C(C)C)c3c1C(=O)C1=CC4CC5C(C)(C)OC(C/C=C(\C)C(=O)O)(C4=O)[C@]15O3)OC(C)(CCC=C(C)C)C=C2` (stereo partly drawn) belongs 22.4 µM [falling, partial curve]; to `C=C1CCC(O)C/C1=C\C=C1/CCCC2(C)C1CCC2C(C)CCCC(C)C` (stereo not drawn), 35.5 µM [rising, partial curve, poor fit]; to `C[C@H]1O[C@@H](O[C@H]2[C@@H](O)C[C@H](O[C@H]3[C@@H](O)C[C@H](O[C@H]4CC[C@]5(C)C6CC[C@]7(C)[C@@H](C8=CC(=O)OC8)CC[C@]7(O)C6CC[C@@H]5C4)O[C@@H]3C)O[C@@H]2C)C[C@H](O)[C@@H]1O` (stereo partly drawn), 6.31 µM [rising, partial curve, poor fit].
